For 19 molecules, enrichment score results are on record in the supplement of paper PMC10369915.

The list shows a part of the results. No stated cut-off is given here; in the data, active = 3.2 or more and inactive = the rest. Only a few entries rise above the background.

Sequences and labels used below:
B1: ACVRL1_Y421_G416S (peptide)
chain: SIVEDYRPPFY
B2: ACTN4_Y265_S262P_YF (peptide)
chain: FVPSFYHAFSG
B3: ACTN4_Y260_S262P (peptide)
chain: KAIMTYVPSFY
B4: ACTA1_Y71_I66N (peptide)
chain: NLTLKYPIEHG
B5: ACTB_Y240_P243L (peptide)
chain: SLEKSYELLDG
B6: ACTN4_Y265_YF (peptide)
chain: FVSSFYHAFSG
B7: ACTN4_Y265_S262P (peptide)
chain: YVPSFYHAFSG
B8: ACVRL1_Y421_F425V_YF (peptide)
chain: GIVEDYRPPVF
B9: ACVRL1_Y375 (peptide)
chain: VGTKRYMAPEV
B10: ACTN4_Y260_S262P_YF (peptide)
chain: KAIMTYVPSFF
B11: ACTC1_Y168_Y168C_YF (peptide)
chain: HNVPICEGFAL
B12: ACVRL1_Y421_Y426C (peptide)
chain: GIVEDYRPPFC
B13: ACTN4_Y260_T259I_YF (peptide)
chain: KAIMIYVSSFF
B14: ACTB_Y198_R196C (peptide)
chain: LTECGYSFTTT
B15: ACVRL1_Y421_P424R (peptide)
chain: GIVEDYRPRFY
B16: ACTN1_Y708 (peptide)
chain: NKHTNYTMEHI
B17: ACTL6A_Y69_P66S_YF (peptide)
chain: GGSTFYIDTNA
B18: ACTG2_Y144_R148S (peptide)
chain: AVLSLYASGST
B19: ACTN1_Y193 (peptide)
chain: PELIDYGKLRK
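Further: displayed peptides selected on beads carrying the immobilized SH2 domain, with library peptides lacking any tyrosine serving as negative controls.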

The first test deals with SHP2 C-SH2 domain E139D. Nature of the test: enrichment score (SH2-bound / input frequency) (ratio); bacterial display of known human phosphotyrosine sites (pTyr-Var adds point mutants) read by sequencing; higher = stronger binding; tyrosines were phosphorylated by kinases first. To be noted: peptide library: pTyr-Var.
Consider B1, for which the enrichment score was inactive: 0.42.

On to B2, for which the enrichment score is inactive: 1.46.

As for B3, the enrichment score is inactive: 0.841.

Regarding B4, the enrichment score is inactive: 1.23.

For the molecule B5, the enrichment score is inactive: 0.658.

Turning to B6, the enrichment score is inactive: 2.57.

As for B7, the enrichment score is inactive: 1.17.

On to B8, for which the enrichment score was inactive: 0.977.

As to B9, the enrichment score was inactive: 0.659.

In the case of B10, the enrichment score is inactive: 1.05.

With B11, the enrichment score was inactive: 0.771.

Regarding B12, the enrichment score was inactive: 0.747.

Turning to B13, the enrichment score was inactive: 1.52.

On to B14, for which the enrichment score is inactive: 0.853.

For B15, the enrichment score is inactive: 0.855.

Take B16: the enrichment score is inactive: 0.773.

With B17, the enrichment score was inactive: 0.967.

Take B18: the enrichment score was inactive: 1.07.

B19: the enrichment score is inactive: 0.452.

For the next test, the target named is SHP2 C-SH2 domain wild-type. The description is as above. To be noted: peptide library: pTyr-Var.
With B1, the enrichment score was inactive: 0.593.

On to B2, for which the enrichment score is inactive: 1.71.

With B3, the enrichment score is inactive: 0.771.

With B4, the enrichment score is inactive: 0.965.

Take B5: the enrichment score was inactive: 0.692.

Turning to B6, the enrichment score was inactive: 2.4.

For B7, the enrichment score was inactive: 1.18.

As to B8, the enrichment score is inactive: 0.772.

As for B9, the enrichment score is inactive: 0.611.

Take B10: the enrichment score is inactive: 1.12.

For the molecule B11, the enrichment score was inactive: 1.05.

On to B12, for which the enrichment score is inactive: 0.798.

As to B13, the enrichment score was inactive: 1.32.

Take B14: the enrichment score is inactive: 0.836.

In the case of B15, the enrichment score is inactive: 0.796.

Regarding B16, the enrichment score is inactive: 0.612.

For the molecule B17, the enrichment score was inactive: 0.55.

As to B18, the enrichment score is inactive: 1.12.

B19: the enrichment score is inactive: 0.484.

The target of the next test is SHP2 N-SH2 domain L43F. The test is described as above. To be noted: peptide library: pTyr-Var.
With B1, the enrichment score was inactive: 0.713.

B2: the enrichment score is inactive: 1.35.

For B3, the enrichment score is inactive: 0.893.

As to B4, the enrichment score is inactive: 0.808.

Take B5: the enrichment score is inactive: 0.8.

As to B6, the enrichment score was inactive: 2.29.

B7: the enrichment score is inactive: 1.23.

As to B8, the enrichment score was inactive: 0.996.

As for B9, the enrichment score was inactive: 0.478.

With B10, the enrichment score was inactive: 0.986.

As for B11, the enrichment score is inactive: 0.837.

As to B12, the enrichment score is inactive: 0.86.

For the molecule B13, the enrichment score is inactive: 1.38.

For the molecule B14, the enrichment score is inactive: 0.721.

For B15, the enrichment score is inactive: 0.82.

With B16, the enrichment score is inactive: 0.696.

B17: the enrichment score is inactive: 0.683.

B18: the enrichment score was inactive: 1.01.

For B19, the enrichment score was inactive: 0.552.

In another test the target is SHP2 N-SH2 domain T42A. Described as above. To be noted: peptide library: pTyr-Var.
Regarding B1, the enrichment score was inactive: 0.646.

Take B2: the enrichment score was inactive: 1.58.

Consider B3, for which the enrichment score is inactive: 0.828.

Turning to B4, the enrichment score was inactive: 0.978.

As for B5, the enrichment score is inactive: 0.639.

Take B6: the enrichment score was inactive: 2.36.

Regarding B7, the enrichment score is inactive: 1.2.

For the molecule B8, the enrichment score is inactive: 0.781.

B9: the enrichment score is inactive: 0.653.

For the molecule B10, the enrichment score was inactive: 0.976.

For the molecule B11, the enrichment score is inactive: 0.889.

In the case of B12, the enrichment score was inactive: 0.703.

With B13, the enrichment score is inactive: 1.26.

For B14, the enrichment score is inactive: 0.737.

With B15, the enrichment score is inactive: 0.553.

For the molecule B16, the enrichment score is inactive: 0.454.

Turning to B17, the enrichment score is inactive: 1.22.

In the case of B18, the enrichment score is inactive: 0.968.

For B19, the enrichment score is inactive: 0.375.

The next test has as its target SHP2 N-SH2 domain T52S. Described as above. To be noted: peptide library: pTyr-Var.
Consider B1, for which the enrichment score is inactive: 0.849.

B2: the enrichment score is inactive: 1.62.

As to B3, the enrichment score is inactive: 0.852.

Take B4: the enrichment score was inactive: 0.864.

Consider B5, for which the enrichment score is inactive: 0.607.

As to B6, the enrichment score was inactive: 2.29.

Turning to B7, the enrichment score was inactive: 1.38.

On to B8, for which the enrichment score was inactive: 0.789.

With B9, the enrichment score was inactive: 0.595.

As to B10, the enrichment score was inactive: 1.03.

For the molecule B11, the enrichment score is inactive: 0.83.

For B12, the enrichment score was inactive: 0.742.

As for B13, the enrichment score is inactive: 1.42.

Take B14: the enrichment score is inactive: 0.547.

On to B15, for which the enrichment score is inactive: 0.721.

In the case of B16, the enrichment score was inactive: 0.588.

Take B17: the enrichment score is inactive: 0.746.

With B18, the enrichment score is inactive: 1.03.

Consider B19, for which the enrichment score is inactive: 0.499.

The target of another test is SHP2 N-SH2 domain wild-type. The description is as above. To be noted: peptide library: pTyr-Var.
As for B1, the enrichment score is inactive: 1.25.

Consider B2, for which the enrichment score was inactive: 1.4.

Regarding B3, the enrichment score is inactive: 0.8.

For the molecule B4, the enrichment score was inactive: 0.919.

For B5, the enrichment score is inactive: 0.694.

With B6, the enrichment score was inactive: 2.17.

Consider B7, for which the enrichment score was inactive: 1.09.

As to B8, the enrichment score is inactive: 0.98.

On to B9, for which the enrichment score is inactive: 0.636.

With B10, the enrichment score is inactive: 1.04.

As for B11, the enrichment score was inactive: 1.19.

B12: the enrichment score is inactive: 0.731.

Turning to B13, the enrichment score is inactive: 1.36.

As to B14, the enrichment score is inactive: 0.853.

B15: the enrichment score was inactive: 0.966.

Turning to B16, the enrichment score is inactive: 0.699.

As for B17, the enrichment score is inactive: 0.859.

In the case of B18, the enrichment score was inactive: 1.11.

As for B19, the enrichment score is inactive: 0.487.
